PubChem BioAssay AID588579 (National Center for Advancing Translational Sciences (NCATS), 2011)
Values joined by “and” are separate entries in the source; they are usually repeats but may differ in a detail not shown here. Identical values can stand only once. The whole screen tested about 400,000 compounds, of which about 2,200 (0.55%) were called active. Inconclusive means that the source gave no clear call. Such entries were picked first, then a sample of the others. Calls come from the whole dose curve; as a rule, active = well fitted inhibition curve with a large enough effect; inconclusive = small, poorly fitted or top-dose-only effect, or another doubt; inactive = no such curve, though single readings can be large or run the other way. A potency beside an inconclusive call is a rough fit, not a confirmed value.

Target: DNA polymerase kappa (Homo sapiens) (UniProt Q9UBT6)
Sequence of UniProt Q9UBT6 (Q9UBT6 whole entry, looked up): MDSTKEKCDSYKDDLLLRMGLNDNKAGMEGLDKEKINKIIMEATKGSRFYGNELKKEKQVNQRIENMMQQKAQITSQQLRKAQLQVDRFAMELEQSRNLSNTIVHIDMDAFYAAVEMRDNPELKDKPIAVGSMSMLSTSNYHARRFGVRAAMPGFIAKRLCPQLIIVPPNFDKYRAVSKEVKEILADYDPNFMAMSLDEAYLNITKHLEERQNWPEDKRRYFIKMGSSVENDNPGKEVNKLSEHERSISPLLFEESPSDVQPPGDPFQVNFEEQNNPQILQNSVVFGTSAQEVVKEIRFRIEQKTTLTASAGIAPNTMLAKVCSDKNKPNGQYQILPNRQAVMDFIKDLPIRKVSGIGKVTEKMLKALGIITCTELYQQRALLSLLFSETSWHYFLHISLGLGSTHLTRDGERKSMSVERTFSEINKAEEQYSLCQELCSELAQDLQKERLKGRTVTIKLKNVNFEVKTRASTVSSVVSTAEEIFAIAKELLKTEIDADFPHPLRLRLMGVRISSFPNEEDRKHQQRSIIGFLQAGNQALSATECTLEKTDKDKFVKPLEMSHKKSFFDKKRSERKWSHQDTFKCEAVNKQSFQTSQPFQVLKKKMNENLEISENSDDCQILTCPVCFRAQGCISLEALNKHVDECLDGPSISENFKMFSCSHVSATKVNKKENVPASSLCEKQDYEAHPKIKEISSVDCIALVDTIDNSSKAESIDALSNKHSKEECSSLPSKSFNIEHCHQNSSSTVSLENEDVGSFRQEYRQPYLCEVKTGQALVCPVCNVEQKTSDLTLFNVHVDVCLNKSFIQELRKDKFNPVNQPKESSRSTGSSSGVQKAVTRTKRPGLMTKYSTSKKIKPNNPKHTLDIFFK
Assay: qHTS for Inhibitors of Polymerase Kappa
Conditions: purified Pol kappa, fluorescent DNA synthesis assay, 10 min; series mostly up to 107 µM
Outline: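 10 nM Pol kappa preincubated 15 min at room temperature with compounds, then reaction started with substrate at 50 nM final. Fluorescence read kinetically at 0 and 10 min; buffer-only wells served as negative control.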
Potency is the fitted concentration of half-maximal effect; tags give direction and shape of the fitted curve.

| Structure (SMILES) | Potency |
| --- | --- |
| COc1cc(C=NNc2ccc(S(=O)(=O)Nc3ccccc3C(=O)O)cc2[N+](=O)[O-])ccc1O | inactive |
| COC(=O)CC1C(C)(C)C2(O)OC34CC2C(=O)[C@@]1(C)C3CC[C@]1(C)C4=CC(=O)OC1c1ccoc1 (some centres not stated) | inconclusive: 3.98 µM [inhibitor, partial curve, poor fit] |
| O=C1NN(c2ccccc2)C(=O)/C1=C/c1ccc(-c2ccc(C(=O)O)cc2)o1 | active: 17.8 µM |
| CCCCCc1cc[n+](CC(=O)c2ccccc2)cc1 | inconclusive: 100 µM [inhibitor, single point] |
| Cc1ccc(N2NC(=O)/C(=C/C=C/c3ccco3)C2=O)cc1C | inconclusive: 89.1 µM [inhibitor, single point] |
| OCCNc1ncnc2oc(-c3ccco3)c(-c3ccco3)c12 | active: 11.2 µM |
| CN(C)[C@H]1C(=O)C(C(=O)NCN2CCCC2)=C(O)[C@]2(O)C(=O)C3=C(O)c4c(O)cccc4[C@](C)(O)[C@H]3C[C@H]12 | active: 3.77 µM |
| CCOc1cc(N2CCOCC2)c(OCC)cc1NC(=O)C1CC(=O)N(c2ccc(C)cc2)C1 (configuration not stated) | inactive |
| C/C(N)=C(/C#N)C(=O)CSc1nnc(SCc2ccc(Cl)cc2)s1 | inconclusive: 89.1 µM [inhibitor, partial curve, poor fit] |
| CCN(CC)C(=O)/C(C#N)=C/c1cc(O)c(O)c([N+](=O)[O-])c1 | active: 6.7 µM |
| O=C(O)c1ccc(N2Cc3ccccc3C2)cc1O | inconclusive: 35.5 µM [inhibitor, full curve] |
| Cc1cccc(-n2c(O)c(C=Nc3ccccc3O)c3ccccc3c2=O)n1 | inconclusive: 39.8 µM [inhibitor, full curve] |
| CC1=NN(c2nc(-c3ccc(C)cc3)cs2)C(=O)C1N=Nc1cccc(O)c1 (configuration not stated) | inconclusive: 89.1 µM [inhibitor, single point] |
| O=C(Nc1ccc(NC(=O)c2ccco2)c(Cl)c1)c1ccc2c(c1)OCCO2 | inconclusive: 89.1 µM [inhibitor, single point] |
| CC(=O)OCC1=C(C(=O)O)N2C(=O)C(NC(=O)c3ccc(COc4c(C)cccc4Cl)o3)C2SC1 (configuration not stated) | inconclusive: 79.4 µM [inhibitor, single point] |
| COc1ccc2[nH]cc(CCNc3ccnc(-c4ccc(C(=O)N(C)C)cc4)n3)c2c1 | inactive |
| CCN(CC1COc2ccccc2O1)C(=O)CN1C(=O)NC(C)(c2ccccc2)C1=O (configuration not stated) | inactive |
| O=c1c(-c2ccc(F)c(F)c2)nc2cncnc2n1-c1ccccc1 | inactive |
| O=C(O)c1cc([N+](=O)[O-])cc2c1C=Cc1ccccc1O2 | inconclusive: 89.1 µM [inhibitor, single point] |
| CCCCn1c(=O)[nH]c(=O)c2c1nc(Cn1ncc(Cl)c(Cl)c1=O)n2CCC | inactive |
| CCN(CC)c1ccc(NC(=O)CCCOc2cccc(C)c2)cc1 | inactive |
| O=C(O)CNS(=O)(=O)c1c(Cl)cccc1Cl | inactive |
| COc1cc2nc(CCc3nc4cc(OC)c(OC)cc4[nH]3)[nH]c2cc1OC | active: 3.16 µM |
| O=C(NCc1ccco1)c1cccc(NC(=O)c2ccccc2)c1 | inactive |

| Structure (SMILES) | Potency |
| --- | --- |
| Cc1cc(/C=C(\C#N)C(=O)NCc2ccco2)c(C)n1-c1ccc(C(=O)O)cc1 | inconclusive: 89.1 µM [inhibitor, single point] |
| CCCCCC1CC(CC(=O)Nc2ccc([N+](=O)[O-])cc2)C(=O)O1 (configuration not stated) | inconclusive: 79.4 µM [inhibitor, partial curve, poor fit] |
| CC(C)[C@H]1COCCS(=O)(=O)N1Cc1ccccc1-c1cccc(Cl)c1 | inactive |
| O=C(O)CCNc1ccc(NCCC(=O)O)c2c1C(=O)c1ccccc1C2=O | active: 22.4 µM |
| Cc1cc(=O)c2cc(C(=O)Nc3ccccc3)ccc2[nH]1 | inactive |
| Oc1ccc(/C=N/N2CCCCC2)c(O)c1O | inconclusive: 56.2 µM [inhibitor, partial curve, poor fit] |
| Cc1ccc(C)c(-c2nc(Cn3c(=O)cc(-c4ccccc4)c4c(C)nn(C)c43)c(C)o2)c1 | inactive |
| CCCCCCCC/C=C\CCCCCCCC(=O)NCCO | inconclusive: 14.1 µM [inhibitor, partial curve, poor fit] and inconclusive: 21.2 µM [inhibitor, single point] |
| O=c1c2ccccc2nc2c3ccccc3ncn12 | inconclusive: 89.1 µM [inhibitor, single point] |
| O=C(CCS(=O)(=O)c1ccc(Br)cc1)NC1CCCC1 | inconclusive: 89.1 µM [inhibitor, single point] |
| O=C(N/N=C/c1ccco1)c1cccc(S(=O)(=O)Nc2ccccc2Cl)c1 | inconclusive: 89.1 µM [inhibitor, single point] |
| COc1cc(N/N=C/c2ccc(N(C)C)cc2)ncn1 | inactive |
| CC(C)(C)C(=O)n1nc(-c2ccccc2)oc1=O | inconclusive: 31.6 µM [inhibitor, partial curve, poor fit] |
| CCOCCCNC(=O)c1ccc(CS(=O)(=O)Cc2ccccc2F)o1 | active: 89.1 µM |
| C/C(CC(=O)Nc1cccc(Br)c1)=N\NC(=O)c1ccc(O)cc1O | inactive |
| Cc1cc(NC(=O)c2ccc(S(=O)(=O)N3CCOCC3)cc2)no1 | inactive |
| Cc1cc(/C=N/Nc2ccc([N+](=O)[O-])cn2)c(C)n1-c1ccc(C(=O)O)cc1 | active: 79.4 µM |
| COc1ccc(/C=C/C(=O)OCC(=O)Nc2cc(S(=O)(=O)N(C)C)ccc2Cl)cc1 | inactive |
| COc1ccccc1OC(=O)CCc1nc2ccccc2s1 | inconclusive: 79.4 µM [inhibitor, partial curve, poor fit] |
| Cc1ccc(/C=C2/NC(=O)N(c3ccccc3)C2=O)o1 | inactive |
| N[C@@H](Cc1cc(CP(=O)(O)O)cc(-c2ccccc2Cl)c1)C(=O)O | active: 21.2 µM |
| COc1cc(/C=N/NC(=O)c2cc(-c3c(C)nn(-c4ccccc4)c3C)n[nH]2)ccc1O | inconclusive: 7.08 µM [inhibitor, partial curve] |
| O=c1c(S(=O)(=O)c2ccc(Cl)cc2)cn(Cc2ccc(F)cc2)c2ccc(F)cc12 | inconclusive: 100 µM [inhibitor, single point] |
